{
  "source": "the supplement of paper PMC8728848",
  "binders": {"B1": {"name": "BT3172pd (Bacteroides thetaiotaomicron) (protein)", "chain": "MLPLRAEHYYYKQISLKEGLPSNVRCILRDEQGFIWIGTKAGLGKFDGHQLKRYKHQANDPHSLLHNLIYQIAEDKQHNIWILTEKGIARYQQQSNNFTFPTDEEGNYITAYSFCLVPDGILFGGKDRIYKYSYKDSSLRLLQYFNANSFKITALSVWDSKTLLCCSRWTGLYLVDLQTGEHRRPPFDCGPEITSMITDSKNRIWIAPYSGGLRCYSRDGKLSASYTTHNSSLSNDIVLSLAEREEQLWIGTDGGGINILHPETGEISQLEYIPGRENYSLPANSILCLHNDYNNNVWAGSTCNGLISIREVSMKTYTDVVPGNDRGLSNGTVRSLYRQSPDSIWIGTDGGGINLFSPHTEKFTHYSSTWGDKVAFISGFTPGKLLISLFSKGVFVFNPATGEKQPFTIIDKETTTRLCNRGKSVNLYQNTPNTVLFLGDHIYQYHLKEKKFSTITEEEGKDIVGTLVPFDHQENLTYINDIKHIYELDDQTSRLKTVFECYTDTVISSVSHDEQGHFWIGSNFGLIHYDPVLKSRTLVPTNLFTEINMVLCDQKGKVWIGVDNMLFAYFIKEQKFVLFGESNGAIQNEYLPNARLVNEQGDAYIGGVKGMLRIDGQLLLNTSEMPELQLLDITINGESANHEWYNHPAKISVPWNSNISIRIMSREEDIFRQKIYRYQIEGLNNEYTESYNPELVIRSLLPGSYRIMASCTAKDGSWIPDQQVLELTVLPPWYRTHHHHHH"}},
  "assay_in_all_cases": "glycan array binding signal (z-score within array); higher = stronger binding",
  "details_in_all_cases": "glycan notation: IUPAC condensed, linker removed",
  "key": {"[1]": {"molecular_target": "Gal(b1-3)GlcNAc(b1-2)Man(a1-3)[Gal(b1-3)GlcNAc(b1-2)Man(a1-6)]Man(b1-4)GlcNAc(b1-4)[Fuc(a1-6)]GlcNAc", "summary_of_the_method": "(§1)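 Arrays were curated from the Consortium for Functional Glycomics database, 3228 in total, and kept only where the protein sequence was available. Binding is expressed as a within-array Z-score. This score was averaged across arrays of the same protein sequence at different concentrations or buffers and across linkers, and negative values can be read as non-binding.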"}, "[2]": {"molecular_target": "Gal(b1-3)GlcNAc(b1-2)Man(a1-3)[GlcNAc(b1-4)][Gal(b1-3)GlcNAc(b1-2)Man(a1-6)]Man(b1-4)GlcNAc(b1-4)GlcNAc", "summary_of_the_method": "as §1"}, "[3]": {"molecular_target": "Gal(b1-3)GlcNAc(b1-2)[Gal(b1-3)GlcNAc(b1-6)]Man(a1-6)[Gal(b1-3)GlcNAc(b1-2)Man(a1-3)]Man(b1-4)GlcNAc(b1-4)GlcNAc", "summary_of_the_method": "as §1"}, "[4]": {"molecular_target": "Gal(b1-3)GlcNAc(b1-3)Gal(b1-3)GlcNAc", "summary_of_the_method": "as §1"}, "[5]": {"molecular_target": "Gal(b1-3)GlcNAc(b1-3)Gal(b1-4)Glc", "summary_of_the_method": "as §1"}, "[6]": {"molecular_target": "Gal(b1-3)GlcNAc(b1-3)Gal(b1-4)GlcNAc", "summary_of_the_method": "as §1"}, "[7]": {"molecular_target": "Gal(b1-3)GlcNAc(b1-3)Gal(b1-4)GlcNAc(b1-2)Man(a1-3)[Gal(b1-3)GlcNAc(b1-3)Gal(b1-4)GlcNAc(b1-2)Man(a1-6)]Man(b1-4)GlcNAc(b1-4)GlcNAc", "summary_of_the_method": "as §1"}, "[8]": {"molecular_target": "Gal(b1-3)GlcNAc(b1-3)Gal(b1-4)GlcNAc(b1-2)[Gal(b1-3)GlcNAc(b1-3)Gal(b1-4)GlcNAc(b1-6)]Man(a1-6)[Gal(b1-3)GlcNAc(b1-3)Gal(b1-4)GlcNAc(b1-2)Man(a1-3)]Man(b1-4)GlcNAc(b1-4)[Fuc(a1-6)]GlcNAc", "summary_of_the_method": "as §1"}, "[9]": {"molecular_target": "Gal(b1-3)GlcNAc(b1-3)Gal(b1-4)GlcNAc(b1-3)Gal(b1-4)GlcNAc(b1-2)[Gal(b1-3)GlcNAc(b1-3)Gal(b1-4)GlcNAc(b1-3)Gal(b1-4)GlcNAc(b1-6)]Man(a1-6)[Gal(b1-3)GlcNAc(b1-3)Gal(b1-4)GlcNAc(b1-3)Gal(b1-4)GlcNAc(b1-2)Man(a1-3)]Man(b1-4)GlcNAc(b1-4)[Fuc(a1-6)]GlcNAc", "summary_of_the_method": "as §1"}, "[10]": {"molecular_target": "Gal(b1-3)GlcNAc(b1-3)Gal(b1-4)GlcNAc(b1-6)[Gal(b1-3)GlcNAc(b1-3)]Gal(b1-4)Glc", "summary_of_the_method": "as §1"}, "[11]": {"molecular_target": "Gal(b1-3)GlcNAc(b1-3)Gal(b1-4)[Fuc(a1-3)]GlcNAc", "summary_of_the_method": "as §1"}, "[12]": {"molecular_target": "Gal(b1-3)GlcNAc(b1-3)Gal(b1-4)[Fuc(a1-3)]GlcNAc(b1-6)[Gal(b1-3)GlcNAc(b1-3)]Gal(b1-4)Glc", "summary_of_the_method": "as §1"}, "[13]": {"molecular_target": "Gal(b1-3)GlcNAc(b1-3)GalNAc", "summary_of_the_method": "as §1"}, "[14]": {"molecular_target": "Gal(b1-3)GlcNAc(b1-6)Gal(b1-4)GlcNAc", "summary_of_the_method": "as §1"}, "[15]": {"molecular_target": "Gal(b1-3)GlcNAc(b1-6)GalNAc", "summary_of_the_method": "as §1"}, "[16]": {"molecular_target": "Gal(b1-3)GlcNAc(b1-6)[Gal(b1-3)]GalNAc", "summary_of_the_method": "as §1"}, "Gal(b1-3)GlcNAc6S": {"molecular_target": "Gal(b1-3)GlcNAc6S", "summary_of_the_method": "as §1"}, "[17]": {"molecular_target": "Gal(b1-3)[Fuc(a1-4)]GlcNAc", "summary_of_the_method": "as §1"}, "[18]": {"molecular_target": "Gal(b1-3)[Fuc(a1-4)]GlcNAc(b1-2)Man", "summary_of_the_method": "as §1"}, "[19]": {"molecular_target": "Gal(b1-3)[Fuc(a1-4)]GlcNAc(b1-2)Man(a1-3)[Gal(b1-3)[Fuc(a1-4)]GlcNAc(b1-2)Man(a1-6)]Man(b1-4)GlcNAc(b1-4)[Fuc(a1-6)]GlcNAc", "summary_of_the_method": "as §1"}, "[20]": {"molecular_target": "Gal(b1-3)[Fuc(a1-4)]GlcNAc(b1-3)Gal(b1-3)[Fuc(a1-4)]GlcNAc", "summary_of_the_method": "as §1"}, "[21]": {"molecular_target": "Gal(b1-3)[Fuc(a1-4)]GlcNAc(b1-3)Gal(b1-4)[Fuc(a1-3)]GlcNAc", "summary_of_the_method": "as §1"}, "[22]": {"molecular_target": "Gal(b1-3)[Fuc(a1-4)]GlcNAc(b1-6)GalNAc", "summary_of_the_method": "as §1"}, "[23]": {"molecular_target": "Gal(b1-3)[GlcNAc(b1-6)]GalNAc", "summary_of_the_method": "as §1"}, "[24]": {"molecular_target": "Gal(b1-3)[Neu5Ac(a2-6)]GalNAc", "summary_of_the_method": "as §1"}, "[25]": {"molecular_target": "Gal(b1-3)[Neu5Ac(a2-6)]GlcNAc(b1-4)Gal(b1-4)Glc", "summary_of_the_method": "as §1"}, "[26]": {"molecular_target": "Gal(b1-3)[Neu5Ac(b2-6)]GalNAc", "summary_of_the_method": "as §1"}, "Gal(b1-4)Gal": {"molecular_target": "Gal(b1-4)Gal", "summary_of_the_method": "as §1"}, "[27]": {"molecular_target": "Gal(b1-4)GalNAc(a1-3)[Fuc(a1-2)]Gal(b1-4)GlcNAc", "summary_of_the_method": "as §1"}, "[28]": {"molecular_target": "Gal(b1-4)GalNAc(b1-3)[Fuc(a1-2)]Gal(b1-4)GlcNAc", "summary_of_the_method": "as §1"}},
  "note": "The other results are listed elsewhere or left out.",
  "data": [
    {"binder": "B1", "values": [
      {"measurement": "glycan array binding signal (z-score)", "setting": "[1]", "value": -0.445},
      {"measurement": "glycan array binding signal (z-score)", "setting": "[2]", "value": 0.825},
      {"measurement": "glycan array binding signal (z-score)", "setting": "[3]", "value": -0.006},
      {"measurement": "glycan array binding signal (z-score)", "setting": "[4]", "value": -0.412},
      {"measurement": "glycan array binding signal (z-score)", "setting": "[5]", "value": 0.004},
      {"measurement": "glycan array binding signal (z-score)", "setting": "[6]", "value": -0.069},
      {"measurement": "glycan array binding signal (z-score)", "setting": "[7]", "value": 0.122},
      {"measurement": "glycan array binding signal (z-score)", "setting": "[8]", "value": -0.073},
      {"measurement": "glycan array binding signal (z-score)", "setting": "[9]", "value": -0.261},
      {"measurement": "glycan array binding signal (z-score)", "setting": "[10]", "value": 0.805},
      {"measurement": "glycan array binding signal (z-score)", "setting": "[11]", "value": -0.172},
      {"measurement": "glycan array binding signal (z-score)", "setting": "[12]", "value": -0.252},
      {"measurement": "glycan array binding signal (z-score)", "setting": "[13]", "value": -0.455},
      {"measurement": "glycan array binding signal (z-score)", "setting": "[14]", "value": -0.291},
      {"measurement": "glycan array binding signal (z-score)", "setting": "[15]", "value": -0.404},
      {"measurement": "glycan array binding signal (z-score)", "setting": "[16]", "value": -0.299},
      {"measurement": "glycan array binding signal (z-score)", "setting": "Gal(b1-3)GlcNAc6S", "value": -0.026},
      {"measurement": "glycan array binding signal (z-score)", "setting": "[17]", "value": -0.208},
      {"measurement": "glycan array binding signal (z-score)", "setting": "[18]", "value": 0.249},
      {"measurement": "glycan array binding signal (z-score)", "setting": "[19]", "value": -0.393},
      {"measurement": "glycan array binding signal (z-score)", "setting": "[20]", "value": -0.769},
      {"measurement": "glycan array binding signal (z-score)", "setting": "[21]", "value": 0.172},
      {"measurement": "glycan array binding signal (z-score)", "setting": "[22]", "value": -0.57},
      {"measurement": "glycan array binding signal (z-score)", "setting": "[23]", "value": 0.293},
      {"measurement": "glycan array binding signal (z-score)", "setting": "[24]", "value": 0.387},
      {"measurement": "glycan array binding signal (z-score)", "setting": "[25]", "value": -0.294},
      {"measurement": "glycan array binding signal (z-score)", "setting": "[26]", "value": -0.596},
      {"measurement": "glycan array binding signal (z-score)", "setting": "Gal(b1-4)Gal", "value": -0.305},
      {"measurement": "glycan array binding signal (z-score)", "setting": "[27]", "value": -0.349},
      {"measurement": "glycan array binding signal (z-score)", "setting": "[28]", "value": -0.489}
    ]}
  ]
}
